The text below walks through data of the RNAGym collection of RNA variant scans (doi:10.1073/pnas.2313332121).

Variants at the background level are over-represented here.

The chains are these.
B1: TPR 5TU (parent)
chain: GGAUCUUCUCGAUCUAACAAAAAAGACAAAUCUGCCACAAAGCUUGAGAGCAUCUUCGGAUGCAGAGGCGGCAGCCUUCGGUGGCGCGAUAGCGCCAACGUUCUCAACUAUGACACGCAAAACGCGUGCUCCGUUGAAUGGAGUUUAUCAUG

The variants in the data set derive from B1. The data set can be described thus: polymerase ribozyme fitness, log enrichment relative to wild type (log ratio); higher = more active; in vitro selection for triplet polymerase activity. A digest of the protocol: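 In triplicate, a single round of in vitro selection was run on each mutant library, PCR-built and transcribed, covering one subunit of a heterodimeric triplet polymerase ribozyme. Frozen incubation at −7 °C followed annealing with a biotinylated primer, partner subunit and triplets, and extended constructs were then gel-excised, streptavidin-captured and taken through RT-PCR. Fitness is the logarithm of genotype enrichment over wild-type enrichment, from inverse-variance-weighted replicate averages of Illumina-sequenced inputs and outputs. […] only genotypes with ≥10 input reads and ≥1 read per output were kept.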
For the variant GGAUCUUCUCGAUCUAACAAAAAAGACAAAUCUGCCACAAAGCUUGAGGGCAUCUUCGGAUGCAGAGGCGGCAGCCUUCGGUUGCGCGAUACCGCCAACGUUCUCAACUAUGACACGCAAAACGCGUGCUCCGUUGAAUGGAGUUAAUCAUG, the “polymerase ribozyme fitness (log ratio)” value is at most -4.2.
The result for GGAUCUUCUCGAUCUAACAAAAAAGACAAAUCUGCCACAAAGCUUGAGCGCAUCGUCGGAUGCAGAGGCGGCAGCCUUCGGUGGCGCGAUAGCGCCAACGUUCUCAACUAUGACACGCAAAACGCGUGCUCCGUUGAAUGGAGUUUAUCAUG reads at most -4.2.
The result for GGAUCUUCUCGAUCUAACAAAAAAGACAAAUCUGCCACAAAGCUUGAGCGCAUCUUCGGAUGCAGAGGCGGCAGCCUUCUGUGACGCGAUAGCGCCAACGUUCUCAACUAUGACACGUAAAACGCGUGCUCCGUUGAAUGGAUUUUAUCAUG reads at most -4.2; that for GGAUCUUCUCGAUCUAACAAAAAAGACAAAUCUGCCACAAAGCUUGAGUGCAUCUUCGGAUGCAGUGGCGGCAGCCUUCGGUGGCGUGAUAGUGCCAUCGUUCUCAAGUAUGACACGCAAAACGCGUGCUCCGUUGAAUGGAGUUUAUCAUG, at most -4.2.
The result for GGAUCUUCUCGAUCUAACAAAAAAGACAAAUCUGCCACAAAGCUUGAGCGCAUCUUCGGAUGCAGAGGCGGCAGCCUUCGGUGGCGCGAUAGCGCCAACGUUCACAACUAGAACACGCAAAACGCGUGCUCCGUUGAAUGGAGUUUAUCAUG reads at most -4.2; that for GGAUCUUCUCGAUCUAACAAAAAAGACAAAUCUGCCACAAAGCUUGAGCGCAUCUUCGGAUGCAGAGGCGGCAGCCUUCGGUGGCGCGAUAGCUCCAGCGUUCUCAACUAUGACACGCAAAACGCGUGCUCCGUUGAAUGGCGUUUAUCAUG, at most -4.2.
With GGAUCUUCUCGAUCUAACAAAAAAGACAAAUCUGCCACAAAGCUUGAGUGCAUCUUCGGAUGCAGAGGCGGCAGCCUUCGGUGGCGCGAUAGCGCCAACGUUCUCAACUAUGACACGCAAAACGCGUGCUCCGUUGACUGGAGUUUAUCAUG, the “polymerase ribozyme fitness (log ratio)” value was at most -4.2.
For GGAUCUUCUCGAUCUAACAAAAAAGACAAAUCUGCCACAAAGCUUGAGGGCAUCUUCGGAUGCAGAGGCGGCUGCCUUCGGUGGCGCGAAAGCGCCAAGGUUCUCAACUAUGAGACGCAAAACGCGUGCUCCGUUGAAUCGAGUUUAUCAUG the value was at most -4.2.
For GGAUCUUCUCGAUCUAACAAAAAAGACAAAUCUGCCACAAAGCUUGAGUGCAUCUUCGGAUGCAAAGGCGGCAGCCUUCGGUGGCGAGUUAGCGCCAACGUUCUCACCUAUGACACGCAAAAGGCGUGCUCCGUUGAAUGGAGUUUAUCAUG the value was at most -4.2; for GGAUCUUCUCGAUCUAACAAAAAAGACAAAUCUGCCACAAAGCUUGAGUGCAUCUACGGAUGCAGAGGCGGCAGCCUUGGGUGGCGCGAUAGCGCCAACGUUCUCAACUAUGACACGCAAAACGCGUGCUCCGUUGAAUGCAGUUUAUCAUG, at most -4.2; for GGAUCUUCUCGAUCUAACAAAAAAGACAAAUCUGCCACAAAGCUUGAGGGCAUCUUCGGAUGCAACGGCGGCAGCCUUUGGUGUCGCGAUAGCGCCAACGGUCUCAACUAUGACACGCAAAACGCGUGCUCCGUUGAAUGGAGUUUAUCAUG, at most -4.2.
The result for GGAUCUUCUCGAUCUAACAAAAAAGACAAAUCUGCCACAAAGCUUGAGGGCAUCUUCGGAUGCAGAGGCGGCGGCCUUCGGUGGAGCGAUAGCGCCAACGUACUCAACUAUGACACGCAAAACGCGUGCUCCGUUGAAUGGAGUUUAUCAUG reads at most -4.2; that for GGAUCUUCUCGAUCUAACAAAAAAGACAAAUCUGCCACAAAGCUUGAGUGCAGCUUCGGAUGCCGAGGCGGCAGCCUUCGGUGGCGCGAUAGCGCCAACGUUCUCAACUAUGACACGCAAAACGCGUUCUCCGUUGACUGGAGUUUAUCAUG, at most -4.2; that for GGAUCUUCUCGAUCUAACAAAAAAGACAAAUCUGCCACAAAGCUUGAGGGCAUCUUCGGAUGCAGAAGCGGCAGCCUUCGGUGGCGCGAUAGCGCCAACGUUCUCAACUAUGACACGCAAAACCCGUGCUCCGUUGAAUGGAGUUUAUCAUG, at most -4.2.
Regarding GGAUCUUCUCGAUCUAACAAAAAAGACAAAUCUGCCACAAAGCUUGAGGUCAUCUUCGGAAGCAGAGGCGUCAGCGUUCGGUGGCGCGACAGCGACAACGUUCUCAACUAUGACACGCAAAUCGCGUGCUCCGUUGAAUGGAGUUUAUCAUG, the “polymerase ribozyme fitness (log ratio)” value was at most -4.2.
For GGAUCUUCUCGAUCUAACAAAAAAGACAAAUCUGCCACAAAGCUUGAGUGCGUCUUCGGAUGCAGAGGCGGCAGCCUUCGGUGGCGCGAUAGAGCCAUCGUUCUCAACUAUGACACGCAAAGCGCGUGCUCCGUUGAAUCGAGUUUAUCACG the value was at most -4.2; for GGAUCUUCUCGAUCUAACAAAAAAGACAAAUCUGCCACAAAGCUUGAGGGCAUCUUCGGAUGCAGAGGCGGCUGCCUUCGGUGGCGCGGUAGAGCCAACGUUCUCAACUAUGACACGCAAAACGCGUGCUCCGUUGAAUGGAGUUUAUCAUG, at most -4.2; for GGAUCUUCUCGAUCUAACAAAAAAGACAAAUCUGCCACAAAGCUUGAGGGAAUCUUCGGAUGCAGAGGCGGCAGACUUCGGUGGCGCGAUAGGGCCAACGUUCUCACCUAUGACACGCAAAACGCGUGCUCCGUUGAAUGGAGUUUAUCAUG, at most -4.2.
On to GGAUCUUCUCGAUCUAACAAAAAAGACAAAUCUGCCACAAAGCUUGAGUGCAUCUUCGGAUGCAGAGGCGGCAGCCUUCGGUCGCGCGAUAGCGCCAACGUUCUCUACUAUGACAGGCAAAAAGCGUGCUCCUUUGAAUGGAGUUUAUGAUG, for which the “polymerase ribozyme fitness (log ratio)” value is at most -4.2.
